Results from the supplement of paper PMC10670038.
Counter-ions that a name gives are not always drawn. ± gives the standard deviation of the averaged measurements. In all, about 2,000 compounds were measured (“relative cell viability vs DMSO, compound alone”: median about 1.1, lowest 2% from about 0.29 on). This is one part of the list.

system: TE10; test: relative cell viability vs DMSO, compound alone (fraction); TE10 is an esophageal squamous carcinoma line; higher = less cytotoxic; conditions: 2 µM; 48 h
Description: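 TE10 ESCC cells (1,000/well, 384-well plates) were treated with Selleck bioactive library compounds at 2 uM alone for 48 h. Viability was read by CellTiter-Glo and expressed relative to DMSO wells. Two technical replicates (A, B).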

SMILES	relative cell viability
CC(C(=O)O)c1ccc2c(c1)Cc1cccnc1O2 (centres undefined) [Pranoprofen]	1.14 ± 0.06
O=C(N/N=C/c1cc(O)c(O)cc1O)c1cc2ccccc2cc1O [Dyngo-4a]	0.909 ± 0.21
Clc1ccc(NN=C(c2ccccc2)c2ccccn2)nc1	0.617 ± 0.047
C[N+]1(C)[C@@H]2C[C@@H](OC(=O)C(O)(c3cccs3)c3cccs3)C[C@H]1[C@@H]1O[C@@H]12 [Tiotropium Bromide hydrate]	0.893 ± 0.034
C[N+]1(C)[C@@H]2CC[C@H]1C[C@@H](OC(=O)C(O)c1ccccc1)C2 (some centres undefined) [Homatropine Methylbromide]	1.15 ± 0.048
COC(=O)C1=C(C)NC(C)=C(C(=O)OCCN2CCN(C(c3ccccc3)c3ccccc3)CC2)C1c1cccc([N+](=O)[O-])c1 (centres undefined) [Manidipine 2HCl]	1.109 ± 0.0084
COC(=O)C1=C(C)NC(C)=C(C(=O)OCCN2CCN(C(c3ccccc3)c3ccccc3)CC2)C1c1cccc([N+](=O)[O-])c1 (centres undefined) [Manidipine]	0.884 ± 0.083
CC(C)N(C[C@H]1O[C@@H](n2cnc3c(N)ncnc32)[C@H](O)[C@@H]1O)[C@H]1C[C@@H](CCc2nc3cc(C(C)(C)C)ccc3[nH]2)C1	1.02 ± 0.1
COC(c1ccccc1)(c1ccccc1)[C@H](Oc1nc(C)cc(C)n1)C(=O)O [Ambrisentan]	1.02 ± 0.04
COc1ccc([C@@H]2CC(=O)c3c(O)cc(O[C@@H]4O[C@H](CO[C@@H]5O[C@@H](C)[C@H](O)[C@@H](O)[C@H]5O)[C@@H](O)[C@H](O)[C@H]4O)cc3O2)cc1O [Hesperidin]	1.02 ± 0.015
O=c1cc(N2CCOCC2)oc2c(-c3cccc4c3sc3ccccc34)cccc12	1.07 ± 0.046
CC(C)(C(=O)O)c1ccc(C(O)CCCN2CCC(C(O)(c3ccccc3)c3ccccc3)CC2)cc1 (centres undefined) [Fexofenadine HCl]	1.08 ± 0.038
Cc1cc(C(C)(C)C)c(O)c(C)c1CC1=NCCN1 [Oxymetazoline hydrochloride]	1.15 ± 0.069
Cc1ccc(-c2csc(NC(=O)c3ccccc3)n2)c(C)c1	1.15 ± 0.044
O=C[C@H](O)[C@@H](O)[C@H](O)CO [Xylose]	1.09 ± 0.049
CC(=O)O[C@]1(C(C)=O)CC[C@H]2[C@@H]3C[C@H](C)C4=CC(=O)C=C[C@]4(C)[C@@]3(F)[C@@H](O)C[C@@]21C [Fluorometholone Acetate]	0.914 ± 0.099
O=C(O)c1cccnc1Nc1cccc(C(F)(F)F)c1 [Niflumic acid]	1.03 ± 0.044
Cc1oncc1C(=O)Nc1ccc(C(F)(F)F)cc1 [Leflunomide]	1.01 ± 0.021
CC1CC(OC(=O)C(O)c2ccccc2)CC(C)(C)C1 (centres undefined) [Cyclandelate]	1.059 ± 0.0051
